# Screen size: about 310,000 compounds; about 2,200 (0.71%) showed an effect of 50% or more. The effect is printed as a negative number. The list shows a part of the results.
# Target: human ether-à-go-go-related gene (hERG) potassium channel (human, UniProt Q12809)
# Assay: primary screen, population patch clamp on CHO cells stably expressing hERG
# human ether-à-go-go-related gene (hERG) potassium channel, sequence (Q12809 whole entry, looked up): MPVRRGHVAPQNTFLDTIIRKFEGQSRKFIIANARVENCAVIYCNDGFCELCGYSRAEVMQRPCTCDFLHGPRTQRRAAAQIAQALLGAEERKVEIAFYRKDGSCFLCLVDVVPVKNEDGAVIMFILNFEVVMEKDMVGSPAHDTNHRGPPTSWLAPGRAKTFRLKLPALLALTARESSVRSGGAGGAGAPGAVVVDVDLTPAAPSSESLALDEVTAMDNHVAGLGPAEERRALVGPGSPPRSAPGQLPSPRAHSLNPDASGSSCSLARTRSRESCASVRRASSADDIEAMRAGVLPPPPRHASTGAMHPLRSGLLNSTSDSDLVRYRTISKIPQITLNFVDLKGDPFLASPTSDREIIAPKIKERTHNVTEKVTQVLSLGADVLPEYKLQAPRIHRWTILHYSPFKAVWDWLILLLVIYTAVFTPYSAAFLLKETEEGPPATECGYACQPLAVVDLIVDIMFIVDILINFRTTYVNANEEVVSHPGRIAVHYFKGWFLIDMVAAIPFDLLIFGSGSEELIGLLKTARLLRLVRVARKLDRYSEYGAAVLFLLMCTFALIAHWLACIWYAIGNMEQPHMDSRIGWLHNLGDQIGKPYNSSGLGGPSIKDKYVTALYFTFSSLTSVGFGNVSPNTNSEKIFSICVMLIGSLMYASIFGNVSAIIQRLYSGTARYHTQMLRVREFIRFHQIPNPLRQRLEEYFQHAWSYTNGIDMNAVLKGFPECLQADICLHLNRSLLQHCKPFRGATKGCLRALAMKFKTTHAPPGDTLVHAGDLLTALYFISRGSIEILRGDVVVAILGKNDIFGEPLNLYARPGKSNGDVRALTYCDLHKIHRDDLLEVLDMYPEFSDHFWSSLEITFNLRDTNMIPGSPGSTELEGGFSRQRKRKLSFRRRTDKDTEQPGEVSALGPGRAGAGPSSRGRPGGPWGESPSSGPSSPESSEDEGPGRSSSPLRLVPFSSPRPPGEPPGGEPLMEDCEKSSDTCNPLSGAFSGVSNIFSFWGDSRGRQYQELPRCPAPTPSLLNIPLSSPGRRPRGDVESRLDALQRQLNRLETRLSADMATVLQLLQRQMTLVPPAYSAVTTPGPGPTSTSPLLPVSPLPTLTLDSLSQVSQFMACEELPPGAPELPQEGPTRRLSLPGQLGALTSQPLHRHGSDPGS
row,Structure (SMILES),"hERG current change (%, negative = inhibition) at 1uM"
1,COc1ccc(CCNC(=O)CC2SC(=NCCc3ccccc3)NC2=O)cc1 (centres unmarked),-1.05%
2,O=C(CSc1nc(-c2ccco2)cc(C(F)(F)F)n1)Nc1cccnc1,21%
3,CC12CCC(=O)N1C(C(=O)N1CCN(c3ccccc3)CC1)CS2 (centres unmarked),-19.6%
4,C/C(N)=C(/C#N)C(=O)COC(=O)c1ccncc1,18.5%
5,CCOC(=O)C1CCCN(C(=O)CC(c2ccccc2)c2ccccc2)C1 (centres unmarked),-2.54%
6,O=C(Nc1ccc2ccccc2c1)/C(=C\c1ccc2c(c1)OCO2)NC(=O)c1ccco1,2.11%
7,COc1ccc(NC(=S)N2CCN(S(=O)(=O)c3ccc(OC)cc3)CC2)cc1,8.93%
8,COc1ccc(Br)cc1-c1nc(CCl)cs1.Cl,10.6%
9,COc1ccc(C(=O)NNC(=O)CSc2nnc(-c3cccnc3)o2)cc1,19.4%
10,O=C(CCc1ccccc1)NCc1ccccn1,-10.1%
11,C=CCn1c(NCc2ccc(N(C)C)cc2)nc2ccccc21,11.2%
12,CCOc1ccc(OCC)c(S(=O)(=O)N2CCCCC2)c1,8.67%
13,CCCCOc1ccc(N(CC(=O)NCc2ccccc2)C(=O)c2csnn2)cc1,-12.8%
14,CC(=O)c1cc(C)ccc1OC(=O)c1cccc2nc(C)oc12,10.8%
15,CCN(CC(=O)Nc1ccc(NC(C)=O)cc1)C(=O)c1cc(S(=O)(=O)N2CCCCCC2)ccc1OC,6.41%
16,Cc1ccc(NC(=S)NCCN2CCOCC2)cc1,-3.53%
17,Cc1nn2c(NCCN3CCOCC3)c3c(nc2c1-c1ccccc1)CCCC3,-1.48%
18,CCOc1ccccc1N(CC(=O)Nc1ccccc1C(=O)NCc1ccco1)S(C)(=O)=O,2.08%
19,O=C(NC1=NCCS1)c1ccncc1,0.0978%

row,Structure (SMILES),"hERG current change (%, negative = inhibition) at 1uM"
1,C=CCN(c1ccccc1)S(=O)(=O)c1ccc(Cl)c(C(=O)OCC(=O)N(C)C2CCS(=O)(=O)C2)c1 (centres unmarked),7.22%
2,CN(Cc1ccccc1)C(=O)COC(=O)c1ccc(S(=O)(=O)N(C)C)cc1,5.98%
3,CN(C)C=Nc1c(C(=O)c2ccccc2)sc2nccc(N(C)C)c12,1.89%
4,COc1ccc(N=Cc2cc(Cc3ccccc3Cl)cc([N+](=O)[O-])c2O)cc1OC,8.67%
5,Cc1cccc2cc3ccccc3nc12,9.43%
6,O=C(Cc1ccccc1)Nc1cc2c(cc1Cl)OCCCO2,12%
7,Cc1ccc(NC(=O)NCC(c2cccnc2)N2CCOCC2)cc1 (centres unmarked),11.5%
8,Clc1ccc(OCc2nn3c(C4CCCCC4)nnc3s2)c(Cl)c1,5.75%
9,O=C(CCc1nnc2ccc(N3CCOCC3)nn12)Nc1ccc(F)cc1F,7.21%
10,CCc1ccc(NC(=O)CSc2nc(=O)n(CCCN(C)C)c3c2CCC3)cc1,0.263%
11,COc1ccc2oc(C(=O)OCC(=O)N(Cc3ccccc3)C(C)C)c(C)c2c1,8.79%
12,COc1cc(NC(=O)C2CCN(S(=O)(=O)c3ccc(Cl)cc3)CC2)ccc1-n1cnnn1,18.4%
13,O=C(NCCS(=O)(=O)N1CCN(Cc2ccccc2)CC1)c1ccccc1,-3.02%
14,O=C(NCc1ccc2c(c1)OCO2)c1cccc(S(=O)(=O)N2CCCCC2)c1,9.24%
15,COc1ccc(NC(=O)CN(C)C(=O)/C=C/c2cn(-c3ccccc3)nc2-c2ccc(F)cc2)cc1,5.97%
16,Cc1nn(C(=O)c2nn(C)cc2[N+](=O)[O-])c(C)c1Cl,4.26%
17,COc1ccc(NS(=O)(=O)c2cccc(C(=O)NNC(=O)c3ccc(=O)[nH]c3)c2)cc1,-7.12%
18,CCNC(=O)Cn1c(=O)c(=O)n(Cc2ccccc2)c2ccc(Cl)cc21,6.7%
19,COc1ccc(C(=O)N(C)C2(C)CCS(=O)(=O)C2)cc1OC (centres unmarked),2.23%

row,Structure (SMILES),"hERG current change (%, negative = inhibition) at 1uM"
1,COc1cccc2c(=O)n(CC(=O)Nc3cccc(F)c3)ccc12,10.5%
2,COc1cccc(N2CCN(C(=O)c3ccc(CS(=O)c4ccc(Cl)cc4)o3)CC2)c1 (centres unmarked),0.509%
3,C=CCCC1(C)C(=O)N(c2ccccc2)c2ccccc21 (centres unmarked),4.88%
4,COc1ccc(-c2cc(C)no2)cc1S(=O)(=O)NCCCN1CCCCCC1,14.5%
5,Cc1cccc(N2CCN(C(=O)c3cc4c(=O)n(C)c5ccccc5c4n3C)CC2)c1C,8.68%
6,COc1ccc(C2CCCN2C(=O)Nc2cccc(C(C)=O)c2)cc1OC (centres unmarked),3.98%
7,O=C(NCCO)N1c2ccccc2Sc2ccccc21,6.79%
8,COc1ccc(OC)c(/C=C2\SC(=S)N(Cc3cccnc3)C2=O)c1,0.429%
9,O=C(Oc1c(Cl)cc(Cl)c2cccnc12)N1CCCCC1,7.26%
10,C=CCc1ccc(OCCCCOc2ccc(C(=O)O)cc2)c(OC)c1,11.5%
11,O=C(NC(=S)N1CCCCC1)c1cccs1,11.1%
12,O=c1cc(Cl)c(-c2ccccc2)nn1Cc1ccc(Cl)cc1,8.53%
13,Cc1noc(C)c1S(=O)(=O)NC1CCCc2ccccc21 (centres unmarked),8.72%
14,COC(=O)CCCC1=CC2=C(c3ccccc3)C(=O)C(C)(OC(=O)C3CCCC3)C(=O)C2=CN1Cc1ccc(OC)cc1 (centres unmarked),12%
15,Cc1ccc2c(c1)N(CC(=O)N1CCCCCC1)C(=O)C(C)O2 (centres unmarked),7.72%
16,O=C1NC(=S)N/C1=C/C=C/c1ccccc1,4.7%
17,Cc1sc2nc3c(C(=O)N4CCCC4)cc(C(=O)c4ccccc4O)cn3c(=O)c2c1C,-3.59%
18,CCNC(=O)NC(=O)CSc1ccc2ccccc2c1,12%

# Reference: publication PMC4336329 (PLoS ONE, 2015)
